# Reference: US20260263442A1, “METHOD FOR TREATING L-DOPA-INDUCED DYSKINESIA USING BEFIRADOL” (Neurolixis, Inc., priority 2023, published 2026)
# Tested on: patients with moderate to severe L-DOPA-induced dyskinesia (LID) in Parkinson's disease
# Test: Adverse events, Phase 2a study of NLX-112 versus placebo
compound,measurement,setting,value
Cc1ccc(CNCC2(F)CCN(C(=O)c3ccc(F)c(Cl)c3)CC2)nc1 [NLX-112],"Investigations (system organ class), events m","Full analysis set, N = 18",1
same,"Investigations (system organ class), subjects n (%)","Full analysis set, N = 18",1 (5.6%) n (%)
same,"Irritability, events m","Full analysis set, N = 18",0
same,"Irritability, subjects n (%)","Full analysis set, N = 18",0 n (%)
same,"Lip injury, events m","Full analysis set, N = 18",1
same,"Lip injury, subjects n (%)","Full analysis set, N = 18",1 (5.6%) n (%)
same,"Metabolism and nutrition disorders (system organ class), events m","Full analysis set, N = 18",1
same,"Metabolism and nutrition disorders (system organ class), subjects n (%)","Full analysis set, N = 18",1 (5.6%) n (%)
same,"Micturition urgency, events m","Full analysis set, N = 18",1
same,"Micturition urgency, subjects n (%)","Full analysis set, N = 18",1 (5.6%) n (%)
same,"Muscle spasms, events m","Full analysis set, N = 18",1
same,"Muscle spasms, subjects n (%)","Full analysis set, N = 18",1 (5.6%) n (%)
same,"Musculoskeletal and connective tissue disorders (system organ class), events m","Full analysis set, N = 18",6
same,"Musculoskeletal and connective tissue disorders (system organ class), subjects n (%)","Full analysis set, N = 18",5 (28%) n (%)
same,"Musculoskeletal stiffness, events m","Full analysis set, N = 18",1
same,"Musculoskeletal stiffness, subjects n (%)","Full analysis set, N = 18",1 (5.6%) n (%)
same,"Nasopharyngitis, events m","Full analysis set, N = 18",1
same,"Nasopharyngitis, subjects n (%)","Full analysis set, N = 18",1 (5.6%) n (%)
same,"Nausea, events m","Full analysis set, N = 18",4
same,"Nausea, subjects n (%)","Full analysis set, N = 18",4 (22%) n (%)
same,"Neck pain, events m","Full analysis set, N = 18",0
same,"Neck pain, subjects n (%)","Full analysis set, N = 18",0 n (%)
same,"Nervous system disorders (system organ class), events m","Full analysis set, N = 18",16
same,"Nervous system disorders (system organ class), subjects n (%)","Full analysis set, N = 18",10 (56%) n (%)
same,"On and off phenomenon, events m","Full analysis set, N = 18",1
same,"On and off phenomenon, subjects n (%)","Full analysis set, N = 18",1 (5.6%) n (%)
same,"Oral pain, events m","Full analysis set, N = 18",1
same,"Oral pain, subjects n (%)","Full analysis set, N = 18",1 (5.6%) n (%)
same,"Orthostatic hypotension, events m","Full analysis set, N = 18",2
same,"Orthostatic hypotension, subjects n (%)","Full analysis set, N = 18",2 (11%) n (%)
same,"Pain in extremity, events m","Full analysis set, N = 18",1
same,"Pain in extremity, subjects n (%)","Full analysis set, N = 18",1 (5.6%) n (%)
same,"Palpitations, events m","Full analysis set, N = 18",1
same,"Palpitations, subjects n (%)","Full analysis set, N = 18",1 (5.6%) n (%)
same,"Parkinsonism, events m","Full analysis set, N = 18",3
same,"Parkinsonism, subjects n (%)","Full analysis set, N = 18",3 (17%) n (%)
same,"Parosmia, events m","Full analysis set, N = 18",1
same,"Parosmia, subjects n (%)","Full analysis set, N = 18",1 (5.6%) n (%)
same,"Pollakiuria, events m","Full analysis set, N = 18",1
same,"Pollakiuria, subjects n (%)","Full analysis set, N = 18",1 (5.6%) n (%)
same,"Product communication issue, events m","Full analysis set, N = 18",1
same,"Product communication issue, subjects n (%)","Full analysis set, N = 18",1 (5.6%) n (%)
same,"Psychiatric disorders (system organ class), events m","Full analysis set, N = 18",9
same,"Psychiatric disorders (system organ class), subjects n (%)","Full analysis set, N = 18",6 (33%) n (%)
same,"Rapid eye movement sleep behaviour disorder, events m","Full analysis set, N = 18",1
same,"Rapid eye movement sleep behaviour disorder, subjects n (%)","Full analysis set, N = 18",1 (5.6%) n (%)
same,"Renal and urinary disorders (system organ class), events m","Full analysis set, N = 18",2
same,"Renal and urinary disorders (system organ class), subjects n (%)","Full analysis set, N = 18",2 (11%) n (%)
same,"Restless legs syndrome, events m","Full analysis set, N = 18",2
same,"Restless legs syndrome, subjects n (%)","Full analysis set, N = 18",2 (11%) n (%)
same,"Rhinitis, events m","Full analysis set, N = 18",0
same,"Rhinitis, subjects n (%)","Full analysis set, N = 18",0 n (%)
same,"SAE: Congenital Anomaly or Birth Defect, events m","Full analysis set, N = 18",0
same,"SAE: Congenital Anomaly or Birth Defect, subjects n (%)","Full analysis set, N = 18",0 n (%)
same,"SAE: Is Life Threatening, events m","Full analysis set, N = 18",0
same,"SAE: Is Life Threatening, subjects n (%)","Full analysis set, N = 18",0 n (%)
same,"SAE: Other Medically Important Serious Event, events m","Full analysis set, N = 18",0
same,"SAE: Other Medically Important Serious Event, subjects n (%)","Full analysis set, N = 18",0 n (%)
same,"SAE: Persistent or Significant Disability/Incapacity, events m","Full analysis set, N = 18",0
same,"SAE: Persistent or Significant Disability/Incapacity, subjects n (%)","Full analysis set, N = 18",0 n (%)
same,"SAE: Requires or Prolongs Hospitalization, events m","Full analysis set, N = 18",0
same,"SAE: Requires or Prolongs Hospitalization, subjects n (%)","Full analysis set, N = 18",0 n (%)
same,"Skin and subcutaneous tissue disorders (system organ class), events m","Full analysis set, N = 18",0
same,"Skin and subcutaneous tissue disorders (system organ class), subjects n (%)","Full analysis set, N = 18",0 n (%)
same,"Sleep disorder, events m","Full analysis set, N = 18",1
same,"Sleep disorder, subjects n (%)","Full analysis set, N = 18",1 (5.6%) n (%)
same,"Somnolence, events m","Full analysis set, N = 18",1
same,"Somnolence, subjects n (%)","Full analysis set, N = 18",1 (5.6%) n (%)
same,"Stress, events m","Full analysis set, N = 18",1
same,"Stress, subjects n (%)","Full analysis set, N = 18",1 (5.6%) n (%)
same,"Surgical and medical procedures (system organ class), events m","Full analysis set, N = 18",2
same,"Surgical and medical procedures (system organ class), subjects n (%)","Full analysis set, N = 18",1 (5.6%) n (%)
same,"Swelling of eyelid, events m","Full analysis set, N = 18",1
same,"Swelling of eyelid, subjects n (%)","Full analysis set, N = 18",1 (5.6%) n (%)
same,"Syncope, events m","Full analysis set, N = 18",0
same,"Syncope, subjects n (%)","Full analysis set, N = 18",0 n (%)
same,"Systolic hypertension, events m","Full analysis set, N = 18",1
same,"Systolic hypertension, subjects n (%)","Full analysis set, N = 18",1 (5.6%) n (%)
same,"Taste disorder, events m","Full analysis set, N = 18",0
same,"Taste disorder, subjects n (%)","Full analysis set, N = 18",0 n (%)
same,"Tinnitus, events m","Full analysis set, N = 18",1
same,"Tinnitus, subjects n (%)","Full analysis set, N = 18",1 (5.6%) n (%)
same,"Vascular disorders (system organ class), events m","Full analysis set, N = 18",3
same,"Vascular disorders (system organ class), subjects n (%)","Full analysis set, N = 18",3 (17%) n (%)
same,"Vertigo, events m","Full analysis set, N = 18",2
same,"Vertigo, subjects n (%)","Full analysis set, N = 18",2 (11%) n (%)
same,"Vomiting, events m","Full analysis set, N = 18",2
same,"Vomiting, subjects n (%)","Full analysis set, N = 18",2 (11%) n (%)
same,Proportion of patients experiencing an adverse event,NLX-112 group,89%
same,Number of adverse events per patient,"NLX-112 group, events/patients",71/18
same,Number of dizziness adverse events per patient,"NLX-112 group, events/patients",2/18
same,"AE action: Dose Not Changed, events m","down-titration, N = 15",6
same,"AE action: Dose Not Changed, subjects n (%)","down-titration, N = 15",4 (27) n (%)
same,"AE action: Dose Reduced, events m","down-titration, N = 15",0
same,"AE action: Dose Reduced, subjects n (%)","down-titration, N = 15",0 n (%)
same,"AE action: Drug Interrupted, events m","down-titration, N = 15",0
same,"AE action: Drug Interrupted, subjects n (%)","down-titration, N = 15",0 n (%)
same,"AE action: Not Applicable, events m","down-titration, N = 15",0
same,"AE action: Not Applicable, subjects n (%)","down-titration, N = 15",0 n (%)
same,"AE causality: Possibly Related, events m","down-titration, N = 15",3
same,"AE causality: Possibly Related, subjects n (%)","down-titration, N = 15",2 (13) n (%)
same,"AE causality: Probably Related, events m","down-titration, N = 15",1
same,"AE causality: Probably Related, subjects n (%)","down-titration, N = 15",1 (6.7) n (%)
same,"AE causality: Unlikely Related, events m","down-titration, N = 15",2
